Results from PubChem BioAssay AID624173 (National Center for Advancing Translational Sciences (NCATS), 2012).
Out of some 410,000 compounds screened, about 490 (0.12%) were called active. The shares of active, inactive and inconclusive entries below differ from those in the screen. Calls follow the shape of the dose curve; as a rule, active = well fitted inhibition curve with a large enough effect; inconclusive = small, poorly fitted or top-dose-only effect; inactive = flat fitted curve, though single readings scatter. Potencies of inconclusive entries are doubtful fits and often do not repeat.

Each molecule was assayed against pyruvate kinase (Trypanosoma brucei) (UniProt Q57TT1) (assay: qHTS of Trypanosoma Brucei Inhibitors). Conditions: TbPYK enzyme, Kinase-Glo Plus ATP luminescence, 45 min; series mostly up to 76.8 µM; activity, negative = inhibition: at the top concentration.
From the text: Members of the Trypanosomatidae family of parasitic protozoans cause a spectrum of diseases throughout the tropical and subtropical world. Sleeping sickness, caused by two subspecies of Trypanosoma brucei, is endemic to areas of sub-Saharan Africa, while Chagas' disease, a manifestation of Trypanosoma cruzi infection, is prevalent throughout Central and South America. In addition, many species of Leishmania are responsible for a range of cutaneous and visceral diseases, causing ulcers, destructive lesions and kalaazar, a lethal infection of the viscera. These diseases cause severe public health and economic burdens on populations that are often already caught in a tragic cycle of poverty, poor nutrition and disease. Collectively, parasites of the trypanosomatid family infect 30 million people worldwide (~500 million live in endemic areas), and account for ~130K deaths annually. Existing treatments have developed little in the past 50 years, and suffer from toxicity, poor efficacy and resistance; the goal of this project is to develop lead drugs that will be suitable for entry into pre-clinical trials.
Glycolysis in axenically cultured T. cruzi, representing the intracellular pathogenic stage, is also essential for these parasites. {Engel, 1987} This project aims to discover and optimize selective inhibitors of the glycolytic enzyme pyruvate kinase (PYK) from Trypanosoma brucei, the parasite that causes sleeping sickness. […] Trypanosomatid PYKs show significant differences from their human counterparts including only 47-50% sequence identity and different allosteric and activation properties.{Callens, 1992} To this end, a qHTS was done against the MLSMR to discover inhibitors.
NIH Molecular Libraries Probe Production Network [MLPCN]
NIH Chemical Genomics Center [NCGC]
PI Name: Malcolm Walkinshaw, University of Edinburgh
2 uL of TbPYK/substrate buffer (columns 1-3, 5-48) are dispensed into Greiner white solid bottom 1536-well assay plates; column 4 receives only TEA buffer as 0x TbPYK controls. Compounds are then transferred via Kalypsys pin tool equipped with 1536-pin array (10 nL slotted pins, V&P Scientific, San Diego, CA). Following addition of compound, 2 uL of ADP (130 uM final concentration, all columns) is added to initiate the reaction. The plates are then incubated at room temperature for 45 minutes. Kinase-Glo Plus reagent is added (3 uL) and plates incubated for 10 minutes, before being transferred to a ViewLux high-throughput CCD imager (PerkinElmer) wherein single end-point measurements of luminescence are acquired using a clear filter. All reagents are diluted in an assay buffer consisting of 50 mM TEA (pH 7.2), 100 mM KCl, 10 mM MgCl2, 0.05% BSA and 0.01% Tween-20.
All screening operations will be performed on a fully integrated robotic system (Kalypsys, San Diego, CA) containing one RX-130 and two RX-90 anthropomorphic robotic arms (Staeubli, Duncan, SC). Library plates will be screened starting from the lowest and proceeding to the highest concentration. Vehicle-only plates, with DMSO being pin-transferred to columns 5-48, will be inserted uniformly at the beginning and the end of each library in order to monitor and record any shifts in the background, which can be affected by reagent dispensers or loss in enzyme activity over time. Screening data will be corrected, normalized, and concentration-effect relationships will be derived by using publicly-available curve fitting algorithms developed in-house (http://ncgc.nih.gov/pub/openhts).
% is scaled to controls: 0 for no effect and ±100 for the full control effect; potency is read from the fitted curve at half-maximal effect; tags tell the direction and shape of the fitted curve.
Also: nearly all actives have a fitted effect of over 50% in size.

Structure (SMILES) | activity, negative = inhibition | Potency
O=C(COc1ccccc1)N1CCN(C(=O)c2ccc([N+](=O)[O-])cc2)CC1 | inactive: -7.61% | 
CC(=O)Nc1ccc(C(=O)CSc2nnc(-c3ccccc3F)n2CCc2ccccc2)cc1 |  | inconclusive: 25.1 µM [inhibitor, partial curve]
COCC(=O)N1CCC[C@@]2(CCN(C(=O)Nc3ccc(OC)cc3)C2)C1 | inactive: 0% | 
C/C(=N\NC(=O)c1ccccc1NC(=O)c1ccc(Cl)cc1)c1ccncc1 |  | inconclusive: 14.1 µM [inhibitor, partial curve, poor fit]
Cc1ccc(S(=O)(=O)NC(C)(C)CSc2nncn2C)cc1 | inactive: -0.271% | 
Cc1cc(C)cc(Oc2coc3cc(OCC(=O)NC4CCCCC4)ccc3c2=O)c1 | inactive: 0.545% | 
Cc1ccc(-c2nnc(-c3cccc(NC(=O)c4cccs4)c3)o2)cc1 | inactive: 2.94% | 
COc1ccc(C2CC(=O)N3CN(c4ccccc4F)CSC3=C2C#N)cc1OC (configuration not stated) |  | active: 3.16 µM
CCOc1cccc2cc(C(=O)OCC(=O)Nc3c(C)cccc3CC)c(=O)oc12 |  | inconclusive: 50.1 µM [inhibitor, single point]
CC(=O)Nc1cc(C(=O)CSc2nnc(C3CC3)n2C2CC2)ccc1O | inactive: -2.05% | 
O=C1OC(CC(=O)N(Cc2nnc(-c3ccccc3Cl)o2)C2CC2)c2ccccc21 (configuration not stated) | inactive: -4.93% | 
CC1=C([N+](=O)[O-])C(c2ccc(Cl)cc2)NC(=O)N1C (configuration not stated) |  | inconclusive: 35.5 µM [inhibitor, single point]
Cc1nnc(N(C(=O)c2cnccn2)c2ccccc2)s1 |  | inconclusive: 39.8 µM [inhibitor, single point]
CCCNC(=O)Cn1sc2nc(C)cc(C)c2c1=O |  | inconclusive: 3.98 µM [inhibitor, full curve, poor fit]
CCS(=O)(=O)n1nc(-c2ccco2)nc1SC |  | inconclusive: 35.5 µM [inhibitor, single point]
C=CCc1cccc2cc(C(=O)Nc3ccc(F)cc3)c(=O)oc12 |  | inactive
CCc1cc2c(=O)n(Cc3ccco3)c(SCC(=O)N(C)C3CCS(=O)(=O)C3)nc2s1 (configuration not stated) |  | inconclusive: 28.2 µM [inhibitor, partial curve]
CC(C)(C)N1C(=O)Cc2c1nc(N)c1c(N)nc(N3CCCCC3CO)c(C#N)c21 (configuration not stated) |  | inconclusive: 25.1 µM [inhibitor, partial curve]
CC(C)n1cc(/C=C2\NC(=O)N(c3cccc(Cl)c3)C2=O)c2ccccc21 | inactive: -12.1% | 
OCCNc1cc(-n2nc(-c3ccccc3)cc2-c2ccccc2)ncn1 |  | inconclusive: 31.6 µM [inhibitor, single point]
CCN(CC)CCCN=Cc1c(O)n(Cc2ccc(F)cc2)c(=O)[nH]c1=O |  | inconclusive: 31.6 µM [inhibitor, single point]
CCn1c(SCC(=O)NC2CC2)nnc1C(C)Oc1ccccc1 (configuration not stated) |  | inconclusive: 12.6 µM [inhibitor, partial curve, poor fit]
Cc1ccc(C(=O)Nc2cccnc2N2CCN(C)CC2)cc1 | inactive: 0.312% | 
Cc1ccc(/C=C/C(=O)Nc2ccc([N+](=O)[O-])c(NC(=O)/C=C/c3ccc(C)o3)c2)o1 |  | inconclusive: 35.5 µM [inhibitor, partial curve, poor fit]

Structure (SMILES) | activity, negative = inhibition | Potency
Oc1ccc(NCc2ccccc2OCc2ccccc2F)cc1 |  | inconclusive: 12.6 µM [inhibitor, partial curve]
C=CCOc1ccc(CNn2cn[nH]c2=S)cc1 |  | inconclusive: 15.8 µM [inhibitor, partial curve, poor fit]
CCOC(=O)c1ccc(Cn2cnc3ccccc3c2=O)cc1 |  | inconclusive: 50.1 µM [inhibitor, single point]
Cc1ccc(C(=O)OC(C)C(=O)NC2CCCCC2C)s1 (configuration not stated) | inactive: -4.93% | 
CC(=O)Nc1ccc2sn(-c3ccccc3)c(=O)c2c1 |  | inconclusive: 6.31 µM [inhibitor, full curve, poor fit]
COCCCn1c(C23CC4CC(CC(C4)C2)C3)n[nH]c1=S |  | inconclusive: 3.55 µM [inhibitor, full curve, poor fit]
Cc1ccc(NC(=O)/C=C/c2ccc([N+](=O)[O-])s2)c(C)c1 | inactive: -10.9% | 
Cc1ccccc1NC(=O)C1CC(Cl)=CCC1C(=O)O (configuration not stated) | inactive: 1.89% | 
COc1ccc(C(=O)CC(=O)c2ccccc2O)cc1OC | inactive: -4.55% | 
COc1cc(N=c2ssnc2Cl)cc(OC)c1OC |  | inconclusive: 4.47 µM [inhibitor, full curve, poor fit]
COc1ccc(Cl)cc1-c1n[nH]c(=S)n1C1CCCCC1 |  | inconclusive: 2.24 µM [inhibitor, full curve, poor fit]
O=C(Nc1nnc(SCC(=O)N2CCCCC2)s1)c1cccs1 |  | inconclusive: 35.5 µM [inhibitor, single point]
Cc1cccc(-c2n[nH]c(=S)n2/N=C/c2cccs2)c1 |  | inconclusive: 7.08 µM [inhibitor, partial curve]
Cc1ccc(C)c2nc3sc(C(=O)O)cc3cc12 |  | inconclusive: 39.8 µM [inhibitor, single point]
COc1cc(/C=N/n2c(C3CCCCC3)n[nH]c2=S)ccc1O |  | inconclusive: 2.82 µM [inhibitor, full curve]
Cc1oc2c(CN3CCCC3)c(O)ccc2c(=O)c1Oc1ccccc1Br |  | inconclusive: 35.5 µM [inhibitor, single point]
CCOc1ccc(N/C=C/C(=O)c2ccccc2)c([N+](=O)[O-])c1 |  | active: 25.1 µM
CCOC(=O)C1C(=O)NC(SCC(=O)Nc2nccs2)=C(C#N)C1c1ccccc1OCC (configuration not stated) |  | inconclusive: 28.2 µM [inhibitor, partial curve, poor fit]
CCn1c(C(=O)OC)cc2c1ccn2-c1ccc(F)cc1 |  | inconclusive: 22.4 µM [inhibitor, partial curve]
O=C(NCc1n[nH]c(=S)n1-c1ccccc1Cl)c1ccc(S(=O)(=O)N2CCCCC2)cc1 |  | inconclusive: 5.62 µM [inhibitor, partial curve, poor fit]
COC(=O)C(NC(=O)c1ccccc1C)(Nc1ncc(S(=O)(=O)c2ccc([N+](=O)[O-])cc2)s1)C(F)(F)F (configuration not stated) | inactive: -0.325% | 
CCc1ccc(NC(=O)C2=CC(c3cccs3)=NS(=O)(=O)N2C)cc1 |  | inactive
Cc1nnc(SCc2nc3ccccc3s2)n1-c1ccccc1 | inactive: -0.886% | 
O=C(OCC#CCSc1nnc(-c2ccc(Br)cc2)o1)c1cccs1 | inactive: 5.69% | 

Structure (SMILES) | activity, negative = inhibition | Potency
CCN1CCC2(CC1)N=C(c1ccc(F)cc1)C(=S)N2C(=O)c1ccc(C(C)(C)C)cc1 |  | inconclusive: 28.2 µM [inhibitor, partial curve, poor fit]
Cc1cccc(N2C(=O)SC(SC(=Nc3ccccc3)Nc3ccccc3)C2=O)c1 (configuration not stated) |  | inconclusive: 10 µM [inhibitor, partial curve, poor fit]
Cc1c(-c2cccc(NC(=O)c3ccco3)c2)nc2ncccn12 | inactive: -0.907% | 
S=c1[nH]nc(Nc2cccc3ccccc23)s1 |  | inconclusive: 6.31 µM [inhibitor, partial curve, poor fit]
CC(=O)C1=C(c2ccccc2)N(C(C)=O)n2c(C)nnc2S1 | inactive: -2.44% | 
O=C1NC(=S)NC(=O)C1=Cc1cccn1-c1ccc(O)cc1 |  | inconclusive: 12.6 µM [inhibitor, partial curve, poor fit]
CC(=O)OCCNc1cc(N2CCN(C)CC2)c2noc3c2c1C(=O)c1ccccc1-3 |  | inconclusive: 3.16 µM [inhibitor, full curve, poor fit]
COc1ccc(NC(=O)c2cc([N+](=O)[O-])ccc2O)cc1 |  | inconclusive: 35.5 µM [inhibitor, partial curve]
Cc1cc(NC(=O)CSc2nnc(COc3ccccc3)o2)no1 | inactive: -4.84% | 
O=C1NC(=S)NC(=O)C1Cc1ccccc1 |  | inconclusive: 25.1 µM [inhibitor, partial curve]
CCN(CC)S(=O)(=O)c1cccc(-c2n[nH]c(=S)n2/N=C/c2ccc(Br)cc2)c1 |  | inconclusive: 31.6 µM [inhibitor, partial curve, poor fit]
NCCc1ccn[nH]1 |  | inactive
CC(=O)c1cccc(NC(=O)c2ccc(Cl)c(S(=O)(=O)N3CCOCC3)c2)c1 | inactive: -2.2% | 
Cc1cccc(-c2nc(CS(=O)CC(=O)NCCc3ccccc3)c(C)o2)c1 (configuration not stated) | inactive: 12.2% | 
CCOc1ccc2nc3c(cc2c1)CN(CCCO)C(=NCCOC)S3 |  | inconclusive: 31.6 µM [inhibitor, single point]
Cn1cc(CC(=O)NCc2ccc(F)cc2)c2ccccc21 | inactive: -5.88% | 
C#Cc1ccc(CN2CCC(Oc3cc(C(=O)NC4CC4)ccc3OC)CC2)cc1 | inactive: -1.61% | 
Cc1ccc(NS(=O)(=O)c2c(C)nc3sccn3c2=O)c(Cl)c1 | inactive: 3.37% | 
CCN(CC)S(=O)(=O)c1cccc(-c2n[nH]c(=S)n2C(C)COC)c1 (configuration not stated) |  | inconclusive: 6.31 µM [inhibitor, partial curve, poor fit]
COc1ccc(-c2cc(-c3cc(OC)ccc3O)[nH]n2)cc1 |  | inconclusive: 50.1 µM [inhibitor, single point]
CCOC(=O)c1c(C)oc2nc(C)nc(NCC3CCN(Cc4ccc(F)cc4)CC3)c12 | inactive: 1.99% | 
C=CCOc1c(Br)cc(CNn2cn[nH]c2=S)cc1OC |  | inconclusive: 5.01 µM [inhibitor, partial curve, poor fit]
CCOC(=O)N1CCN(CCC(=O)c2ccc(Br)cc2)CC1 | inactive: 0.932% | 
O=c1ccc2c(-c3ccccc3S(=O)(=O)O)c3ccc(O)c(O)c3oc-2c1O |  | inconclusive: 14.1 µM [inhibitor, partial curve, poor fit]
